About 1,700 (3.3%) of roughly 52,000 compounds were called active. No stated cut-off is given here; in the data, active means survival mostly below about 52% (no sharp cut-off); inactive means mostly above about 56%. Some of the results follow.

This experiment has as its system Wild type. The experiment is described as follows: S. aureus survival, RN4220 and DeltatarO strains – OD600, teichoic acid synthesis inhibitors, primary screen (AID 463173). Conditions: S. aureus RN4220 wild type/DeltatarO growth, OD600, 18 h, hits give low values, screened at 18.75 µg/mL (by protocol).
`CCOc1ccccc1NS(=O)(=O)c1c(C)nc2sccn2c1=O`: the survival was inactive: 79%.

As to `CCn1c(=O)c2cc(C(=O)N(CCCOC(C)C)Cc3ccco3)sc2c2ccccc21`, the survival is active: 1%.

Consider `Cc1cc(C)c(NC(=O)Cn2c(SCC(=O)NCc3ccccc3)nc3ccccc32)c(C)c1`, for which the survival is inactive: 75%. Turning to `Cc1ccc(-c2sc(C(=O)Nc3ccc(Br)cc3)cc2CC(=O)O)cc1`, the survival is inactive: 67%.

As to `O=C(Cn1nnc(-c2cccs2)n1)NC1CC1`, the survival is inactive: 100%.

With `CCC(=O)NC1CCC(c2ccccc2)CC1` (stereo not drawn), the survival was inactive: 109%. As to `COc1cccc(CNC(=O)C2CCN(S(=O)(=O)c3ccc4c(ccn4C)c3)CC2)c1`, the survival is inactive: 55%. For the compound `COc1ccc(-c2cn3cccnc3n2)cc1NC(=O)c1c(F)cccc1F`, the survival was inactive: 70%.

As for `CSc1ccc(C2c3[nH]c4ccccc4c3CCN2C(=O)CCc2ccccc2)cc1` (stereo not drawn), the survival is inactive: 85%.

`COc1cc(Cl)c(C)cc1NC(=O)CCn1c(=O)c2cccn2c2cccnc21`: the survival was inactive: 92%.

For `CC(C)c1nc2ccc(C(=O)NCc3ccc(N(C)C)cc3)cc2o1`, the survival was inactive: 77%.

Consider `CCOC(=O)N1CCN(c2ncnc3c2cnn3-c2ccccc2)CC1`, for which the survival was inactive: 112%. The value for `Cc1ccc(-n2nc3c(=O)n(CCCC(=O)NCCc4ccccc4)nc(C)c3c2C)cc1` was inactive: 121%. To `Cc1cccc(CCNC(=O)CCS(=O)(=O)c2cc3c(cc2Cl)NC(=O)CO3)c1` belongs inactive: 99%; to `COc1ccc(C)cc1Nc1nc2ccccc2c2nnc(C)n12`, inactive: 125%; to `Cc1cccc(NC(=O)CSc2nc3c(oc4ccccc43)c(=O)n2Cc2ccco2)c1`, inactive: 75%. Take `CCOc1ccc(CNC(=O)CCC(=O)N2CC3CCCN3c3ccccc32)cc1` (stereo not drawn): the survival is inactive: 101%. Consider `CCN1CCN(C(c2cccc(F)c2)c2c(O)cc(C)n(CCOC)c2=O)CC1` (stereo not drawn), for which the survival was inactive: 89%. Turning to `COc1ccc(Cl)cc1NC(=O)c1cc(S(=O)(=O)N2CCC(C)CC2)cn1C`, the survival is inactive: 84%. For `CCc1nc2cccnc2n1-c1ccc(CC(=O)Nc2ccccc2Cl)cc1`, the survival was inactive: 74%. With `COc1ccccc1-c1noc(CSc2nnc(Cc3ccccc3)n2-c2ccc(C)c(C)c2)n1`, the survival is inactive: 57%.

Take `Cc1ccc(C)n1-c1nnc(N2CCC(C(=O)NCc3ccc(F)cc3)CC2)s1`: the survival is inactive: 88%. The value for `CN(C)c1nc2ccc(OCCN3CCCCC3)cc2s1` was inactive: 109%; that for `CC(C)C(=O)Nc1ccc2nc(SCC(=O)N3CCOCC3)sc2c1` was inactive: 88%; that for `Cc1cc(NS(=O)(=O)c2ccc3nc(-c4ccccc4)[nH]c3c2)ccc1Br` was active: -4%. To `Cc1ccc(N2CC(c3nnc(NC(=O)c4ccco4)s3)CC2=O)cc1Cl` (stereo not drawn) belongs inactive: 88%; to `CCn1c(NCc2ccccc2)nc2ccccc21`, inactive: 109%; to `O=S(=O)(c1ccc(Br)cc1)c1nnn2c1nc(NC1CCCCCC1)c1sccc12`, inactive: 97%.

Turning to `CCOc1cc(S(=O)(=O)N2CCC(c3nc4ccccc4s3)CC2)c(OCC)cc1S(=O)(=O)N1CCOCC1`, the survival is inactive: 109%.

For the compound `Cc1ccc(-n2nc3ccc(NC(=O)c4cc5ccccc5o4)cc3n2)cc1`, the survival is inactive: 80%. Regarding `Cn1c(=O)c2sccc2n2c(CCC(=O)N3CCN(c4ccccc4)CC3)nnc12`, the survival was inactive: 144%. Take `COC(=O)C(Sc1nc(C)cc(C)c1C#N)c1ccccc1` (stereo not drawn): the survival is inactive: 110%.

In the case of `C1CCC(N2CCC(N3CCCCC3)CC2)CC1`, the survival is inactive: 105%. In the case of `CCc1ccc(NC(=O)N2CCN(Cc3cc(=O)n4nc(-c5ccccc5OC)sc4n3)CC2)cc1`, the survival is inactive: 74%. For `CCOC(=O)c1cccc(NC(=O)NCCc2c(C)nn(C)c2C)c1`, the survival is inactive: 63%. To `Cc1cccc(C)c1OCCCCn1c(C2CC(=O)N(c3ccc(F)cc3)C2)nc2ccccc21` (stereo not drawn) belongs inactive: 34%. Take `COC(=O)c1ccccc1NC(=O)c1noc2c1CSc1ccccc1-2`: the survival was inactive: 83%. To `COc1ccc2nc(NC(=O)c3ccc(S(=O)(=O)N4CCC(C)CC4)cc3)sc2c1` belongs inactive: 81%; to `O=S(=O)(NCC(c1ccco1)N1CCN(c2ccc(F)cc2)CC1)c1ccccc1` (stereo not drawn), inactive: 55%; to `CCn1c(=N)c(C(=O)NCc2cccnc2)cc2c(=O)n3cc(C)ccc3nc21`, inactive: 76%. For `COC(=O)c1cc2occc2n1CC(=O)Nc1cccc(SC)c1`, the survival is inactive: 88%. For `COc1ccc(-c2cc(C(=O)Nc3cc(C)ccc3O)no2)cc1OC`, the survival is inactive: 85%. For `COc1ccc(-c2nc(CSCC(=O)NCCc3ccc(C)cc3)c(C)o2)cc1OC`, the survival is inactive: 72%. The value for `O=C(Cn1c(=O)sc2ccccc21)Nc1nc2c(s1)CCCC2` was inactive: 125%. On to `CCN(CC)CCCNC(=O)c1c(C)oc2ncnc(N3CCOCC3)c12`, for which the survival is inactive: 136%. Consider `CCCCN(Cc1ccccc1)S(=O)(=O)c1ccc2c(c1)CC(C)N2C(=O)CC` (stereo not drawn), for which the survival is inactive: 96%. The value for `COc1ccccc1Cc1nc2ccccc2nc1SCC(=O)NCCc1ccccc1` was inactive: 74%; that for `Cc1c(C(=O)NCc2ccc(Cl)cc2)sc2nc3n(c(=O)c12)CCCC3` was inactive: 107%. Take `CCOc1ccc(CNC(=O)c2ccc(NC(=O)c3nsc4ccccc34)cc2)cc1`: the survival was inactive: 71%. In the case of `CCS(=O)(=O)c1ccccc1C(=O)N(Cc1cccnc1)c1nc2cc(C)c(C)cc2s1`, the survival was inactive: 118%.

Regarding `CCOC(=O)Cn1cc2c(c1-c1ccc(Cl)cc1)c(=O)n(C)c(=O)n2C`, the survival was inactive: 85%. For the compound `CCc1noc2nc(C)n(CC(=O)O)c(=O)c12`, the survival was inactive: 89%. To `CN(C(=O)CSc1nc2ccccc2n1CC(=O)NCc1ccc(F)cc1)c1ccc(F)cc1` belongs inactive: 121%; to `c1ccc(C(c2cccs2)c2c[nH]c3ccccc23)cc1` (stereo not drawn), inactive: 17%. To `Cc1cccc(-n2c(=O)c3c(c4cc(C)ccc4n3C)n(CC(=O)Nc3ccccc3C(F)(F)F)c2=O)c1` belongs inactive: 84%.

In the case of `Cc1ccc(CNc2ncnc3c2c(-c2ccccc2)cn3-c2cccc(Cl)c2)cc1`, the survival was inactive: 69%. Take `COc1ccc(-c2nc3n(n2)C(c2ccccc2F)C(C(=O)Nc2cccnc2)=C(C)N3)cc1OC` (stereo not drawn): the survival was inactive: 85%.

Turning to `Cc1ccc(-c2noc(CN(C3CCCCC3)S(=O)(=O)c3ccc(Cl)cc3)n2)cc1`, the survival is inactive: 86%.

The record behind these values is PubChem BioAssay AID463173 (ICCB-Longwood Screening Facility, Harvard Medical School, 2010).
